Laboratory results taken from the supplement of paper PMC12217912.
The other results are listed elsewhere or left out. Sequences were assembled here from the parent chain. Values near 0.05 are background.

B1: TEV protease; numbered along this chain (parent)
chain: MGESLFKGPRDYNPISSSICHLTNESDGHTTSLYGIGFGPFIITNKHLFRRNNGTLVVQSLHGVFKVKDTTTLQQHLVDGRDMIIIRMPKDFPPFPQKLKFREPQREERICLVTTNFQTKSMSSMVSDTSCTFPSGDGIFWKHWIQTKDGQCGSPLVSTRDGFIVGIHSASNFTNTNNYFTSVPKNFMELLTNQEAQQWVSGWRLNADSVLWGGHKVFMVKPEEPFQPVKEATQL

Variants of: B1
Test: raw area under fraction-flipped curve 0-4 h after induction (AUC4h, not background-subtracted), DNA-recorder readout of cleavage of the substrate (dimensionless); higher = more cleavage of the substrate by the protease variant
Conditions: temperature: 34 °C; time window: 0-4 h after rhamnose induction
Procedure: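 In vivo DNA recorder in E. coli TOP10(DE3) ΔrhaA at 34 °C. Each TEVp single-site mutant (parent TEVp 0) is paired with a single-site variant of the 7-mer TEVs (canonical ENLYFQ|S). The substrate sits between flexible linkers in a Bxb1-sfGFP-TEVs-SsrA fusion, so cleavage stabilises Bxb1 and speeds flipping of a recombination array, read by NGS. The value is the raw area under the fraction-flipped curve over 0-4 h after rhamnose induction (AUC4h), with ≥20 reads per time point. It is not background-subtracted; inactive controls average about 0.047.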
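Note: Bxb1 expression induced with 0.2% (w/v) L-rhamnose at OD600 near 0.5, cultures sampled hourly, flipped fraction per protease–substrate barcode pair counted by paired-end Illumina sequencing.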

Variant | area with substrate ENLAFQS | area with substrate ENLCFQS | area with substrate ENLDFQS | area with substrate ENLEFQS | area with substrate ENLFFQS | area with substrate ENLGFQS | area with substrate ENLHFQS | area with substrate ENLKFQS | area with substrate ENLLFQS | area with substrate ENLNFQS | area with substrate ENLPFQS | area with substrate ENLRFQS | area with substrate ENLSFQS | area with substrate ENLWFQS | area with substrate ENLQFQS | area with substrate ENLVFQS | area with substrate ENLIFQS | area with substrate ENLTFQS | area with substrate ENLMFQS
W199T | 0.0643 | 0.0578 | 0.0626 | 0.0818 | 0.0846 | 0.0684 | 0.0655 | 0.0658 | 0.0749 | 0.0778 | 0.0692 | 0.0678 | 0.0459 | 0.0692 |  |  |  |  | 
T55P |  | 0.0672 |  | 0.0688 | 0.0904 |  |  | 0.0687 | 0.0422 | 0.0604 | 0.0574 |  | 0.0592 |  | 0.067 | 0.0624 |  |  | 
L205P | 0.0544 |  | 0.0076 | 0.0785 | 0.0533 |  |  | 0.056 |  | 0.0555 |  |  | 0.0436 |  |  |  | 0.0411 |  | 
Y12T |  | 0.0707 | 0.0527 | 0.0658 | 0.0924 | 0.059 | 0.0726 | 0.063 |  | 0.0657 | 0.0561 |  | 0.0673 |  |  | 0.0721 | 0.0819 | 0.0594 | 
G63P |  | 0.0624 | 0.0441 | 0.0561 | 0.0649 | 0.0621 | 0.062 | 0.0578 | 0.0638 | 0.0445 | 0.0665 |  | 0.0489 | 0.0419 | 0.0526 | 0.0743 |  |  | 
V217M | 0.0688 | 0.0556 | 0.0596 |  | 0.0824 | 0.0627 | 0.058 | 0.0724 | 0.0544 | 0.0573 |  | 0.072 | 0.0551 |  |  |  |  |  | 
K7R |  | 0.0648 |  |  | 0.0807 | 0.0708 | 0.0725 | 0.0759 |  |  |  |  | 0.065 | 0.0429 | 0.0872 |  |  |  | 
K7T |  | 0.0632 |  | 0.0404 | 0.0461 |  | 0.0481 |  |  | 0.0627 | 0.0662 |  |  |  |  |  |  |  | 
R87L |  | 0.0701 | 0.0526 |  | 0.066 | 0.0732 | 0.0706 | 0.0745 |  | 0.0537 | 0.0686 | 0.0698 | 0.0615 | 0.0757 |  | 0.08 | 0.0653 |  | 
T70C |  | 0.059 | 0.0688 | 0.0533 | 0.0712 | 0.0743 |  | 0.0698 | 0.0785 | 0.0629 |  | 0.0604 |  |  | 0.0719 |  | 0.0627 |  | 0.0546
W203Q | 0.0719 |  | 0.0495 | 0.0551 |  |  |  | 0.0599 |  | 0.065 | 0.0754 |  |  |  |  |  | 0.0477 |  | 0.0772
W203H | 0.0586 |  |  | 0.053 | 0.0659 | 0.0537 |  |  |  | 0.0762 | 0.0623 |  | 0.0622 | 0.0678 | 0.0599 | 0.0527 | 0.0548 | 0.0436 | 
G37D |  | 0.0431 | 0.0578 | 0.035 | 0.0512 | 0.0449 | 0.0497 | 0.0456 |  | 0.0497 | 0.0516 |  | 0.038 | 0.0343 | 0.0664 |  | 0.0426 |  | 0.0321
Q234E | 0.0649 | 0.0691 | 0.0668 |  | 0.0772 |  | 0.0713 | 0.0837 | 0.0809 | 0.0696 | 0.0711 | 0.0751 | 0.0597 |  |  |  |  |  | 0.0695
Q234P | 0.0831 |  | 0.0527 |  | 0.0951 |  |  | 0.0664 | 0.0675 | 0.0714 | 0.043 | 0.0665 | 0.0547 | 0.0711 | 0.0525 | 0.0901 |  |  | 
A232I | 0.0928 |  | 0.059 | 0.0713 |  |  |  | 0.109 |  |  |  |  | 0.0432 | 0.0666 | 0.0721 |  | 0.0937 |  | 
